The supplement of paper PMC11417369
The list shows a part of the results.

What follows are sequences tested on PfSIP2 AP2 domain 1 (GST-tagged) (assay: gcPBM binding intensity (ln(normalized median fluorescence intensity)); higher = stronger DNA binding).
Method in brief: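 GST-fused DNA-binding domains of P. falciparum, expressed in E. coli, were applied at about 25 μg on average for 1 h to an Agilent 4 × 180k array of primer-extended double-stranded 36-bp intergenic genomic probes and negative controls. Binding intensity is the highest Masliner-normalised natural-log median intensity across replicate spots of either probe orientation, measured with Alexa488 anti-GST antibody and a 488 nm scan.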

Row | Sequence | gcPBM binding intensity (ln)
1 | TTCTAAACACATTGACAAATTAATATATTACAGCAA [GTGCAC_negctrl_site121] | 6.98
2 | TTATTTTTCAATGAAAAGGATTATATATATATATAT [CACACA_negctrl_site757] | 9.42
3 | TATAAGAAAAATAACACACACATAAACATAAATACA [CACACA_site5536] | 7.03
4 | AAAAAAAAAAAAAAATGTACATAAAAATGATATAAT [XGTACX_site4096] | 7.36
5 | AAAATTTATAGTATGGTGCATAAAAATATATATATA | 10.3
6 | TTCAAGATTTATTATACACACATATTAAAATATATA [CACACA_site4479] | 6.89
7 | AAACATTTTCATTTGACACACATCATATATTTATAT [CACACA_site1794] | 7.04
8 | AATCTATCAAAGTGTACATGCAATAAAAAAAAAAAA [TGCATGCA_site103] | 7.09
9 | AAAAAATTATTATGAACACACATTTATTATATTCAT [CACACA_site1566] | 6.78
10 | CTTTCATTTCTATCTACACACATATTTTTTCCAAGT [CACACA_site2972] | 7.32
11 | TTAATGTACAGACACCCACACACAAACAAATATATA [CACACA_site8888] | 7.2
12 | AAAAGAAAAAAAAGTACACACATGTATATTAAGCGT [CACACA_site5402] | 7.19
13 | TTTTTTTTTCCCCCATGTACATAAATAAGTATATCT [XGTACX_site6965] | 8.17
14 | GCGTGCGTGTACTTAACACACATAATATGTATTTAT [CACACA_site1247] | 7.08
15 | TATATATATAAATACAGTACATATATAATATTTTGA [XGTACX_site637] | 7.81
16 | AAAAATATATATATATATATATATATATTATTTTTT [TGCATGCA_negctrl_site378] | 7.6
17 | TAACTTAATTTTAATGCACACAATTTATATATATAT [CACACA_site6022] | 9.24
18 | AATTATATGAAATAAACACACATATGCAATATTGCA [CACACA_site6988] | 6.98
19 | ATATGTACTATACGCACACACACTCACATATATATA [CACACA_site3239] | 7.51
20 | ATTATATATATCAGGTGTACGTAAAAAAAATGGACG [XGTACX_site1028] | 7.99
21 | GAGGTCTTTTTTAATGTGCACATATATATATATATA | 9.79
22 | TTTTTTTATTAATGTAGTACAATATAATGTTATATT [XGTACX_site2295] | 7.18
23 | TTTTTTTTTTTTTTTACACACTCCAATAAAAAAGAA [CACACA_site2119] | 7.2

Row | Sequence | gcPBM binding intensity (ln)
24 | TATAAAAATATATTTACACACTATAAATATCGAAAG [CACACA_site6896] | 6.97
25 | TAATTTATAAATATAATATTTATGTATATGATGTTT [CACACA_negctrl_site464] | 6.99
26 | TACAACTTAATATGTACACACAAATATATATATATA [CACACA_site5138] | 9.36
27 | GAAATACATTTTAAAAAATAAGTAATTATAAAATAA [TGCATGCA_negctrl_site303] | 6.77
28 | ATTCATCCAATAATGTGAATTATCATGATAAACTTA [TGCATGCA_negctrl_site406] | 6.62
29 | TTTATAAATAAACACACACACATGTGAACATAAAAA [CACACA_site5110] | 7.02
30 | GATACCTATAGACACACACACATACCTATATACATA [CACACA_site7586] | 7.34
31 | ATCAAAATTGTCATTACACACCTTTATTTTTAGAAT [CACACA_site1813] | 6.94
32 | ATATATGTAAATGAATGTACATTATTTTATATATTA [XGTACX_site8460] | 7.01
33 | ATTATTCTATATGAAACATGCATACATTTGTATTTT [TGCATGCA_site823] | 7.12
34 | TCCAATAATTTATAAAAAAAAAAAGGGAAAATGTAT [TGCATGCA_negctrl_site492] | 6.8
35 | TTGGATTTTTCCTATGAACACACGGGGTTACAATTA [CACACA_site449] | 6.73
36 | TTAATATGAGAATAATGTACAAGAAAATATTACATA [XGTACX_site6609] | 6.87
37 | ATATATTTATTATTAACATGCAATCATTATATATAA [TGCATGCA_site404] | 6.88
38 | AAAATAATAAAAAACTGTACGAATTAAAAATTAACA [XGTACX_site8454] | 7.03
39 | ATAGATAAATTTACGGGTACTAAAATGGAATATGAA [XGTACX_site8637] | 7.35
40 | TATTTTACAATAACAATACACACTATAATATATATA [CACACA_site1391] | 7.57
41 | TGTGTTCAGTATTGCACACACACAACCAAATAAAAA [CACACA_site379] | 7.22
42 | ATTCACATATTATCTTTACACACTATATATAAGTTT [CACACA_site8901] | 7.32
43 | CATCAAAATGCTACATGTACATATATATAATATATT [XGTACX_site5207] | 7.28
44 | AATATATATAAATAAACACACACAAATATAATAAAA [CACACA_site9176] | 7.04
45 | GAAATGAACAAGTGGGTGCGTATTAATTACATATTA | 9.77
46 | TTTTTAATTTTTTTTAAACACACACCGTACATTCAA [CACACA_site7925] | 7.29

Row | Sequence | gcPBM binding intensity (ln)
47 | TATATACTTTATAAATGTACATATAATGTATTATTT [XGTACX_site7313] | 6.98
48 | TATATATATACATATTGTACATATTACATGCTATTA [XGTACX_site1184] | 8.16
49 | CATTTTCATTTTAAGGTGCATTAATATTTATTTTAA [GTGCAC_site9437] | 10.4
50 | TCATTTTAAATATGTGTGCACGTTATAATTTACACA | 9.54
51 | CAAATTGGGAAATTTTGTACATATAATAAGGATACC [XGTACX_site7728] | 7.28
52 | GATAATGAATGATGCACACTAAAAATATTCTACAAC [CACACA_site3622] | 7.64
53 | CCGTATATTTTATATAGTACTCATCATATATTTTTA [XGTACX_site5560] | 6.96
54 | AAACTCTCTTATATTAAACACACATATATATATGTA [CACACA_site8865] | 7.01
55 | AAACAAAAGATATATACACACTAAACATAAAAAAAA [CACACA_site6161] | 6.84
56 | AAAAACTTTTCAAGTAGTACCATATCTACAATAGTA [XGTACX_site8927] | 6.83
57 | CCTTTATTAAATAAATGTACATATTTTTGTGTTCTT [XGTACX_site2052] | 7.19
58 | AATAAAAATAAAATTGTATATTTTAAATGAAAATAA [CACACA_negctrl_site898] | 6.73
59 | GTTGGTAGGATGTATGGTACACGTAGTATTTTTCTT [XGTACX_site2] | 6.95
60 | ACATATGAAAAATATGCATGCAAATATTATTTAACA [TGCATGCA_site802] | 6.88
61 | TATGTATGTTAGTGTGCACACATAAATATTATATAT [CACACA_site9121] | 9.26
62 | TTTTTAAAATTTTTAAAAATATTATGTTAAATATAT [CACACA_negctrl_site415] | 6.86
63 | TTGAAAGAAAATAAAATAAAATAAAATAAAATAAAA [CACACA_negctrl_site859] | 6.82
64 | AAAAAAAAAAAAATCTCACACATAAAGAGATTATGA [CACACA_site4408] | 6.95
65 | ATATATATGTATTTATGTACATATTATTTTTCTTAA [XGTACX_site8169] | 7.16
66 | AATAAATAAAAATATATATATATAATATACATGTGT [TGCATGCA_negctrl_site369] | 7.19
67 | TTTTATTTCAATCCACAAGGGATAAAATAAAGTTTT [CACACA_negctrl_site699] | 6.71
68 | GGATGTATTTATATGTGTATGTGTTTGGAAATATGT [XGTACX_negctrl_site99] | 7.33
69 | TACATGAATATATAAAGAAAAAAAAAAAAACACACA [XGTACX_negctrl_site350] | 7.01

Row | Sequence | gcPBM binding intensity (ln)
70 | TATAAATTATATATTTGTACGTATATCACATATATA [XGTACX_site7053] | 7.08
71 | TATATGTTATATTTAACACACATATAAGGTACATAT [CACACA_site612] | 7.06
72 | TTTATTGAATAAAATGCACACGCATGCGTTATTTAT [CACACA_site9154] | 6.92
73 | TTCTCATAATTAAATAGTACATATTTTAATAATCAC [XGTACX_site6116] | 7.14
74 | TGTTAAAGAGAAAGTACTACACATATTATGTGTTTT [XGTACX_site1435] | 6.88
75 | TTTTATAAACAGAGGGGTACGGGAAAAAAAAAAAAA [XGTACX_site1480] | 7.11
76 | TTAAAAAAAATTATTTGTACTTAAAAATTTTATATT [XGTACX_site8751] | 6.86
77 | AGAAAAAAAAAACACACACACACACCGTCAATATAA [CACACA_site7895] | 6.86
78 | TTTTTAAACCATGTTGTGCACATTTTTTTTGGATTT | 9.2
79 | AAAATTATATATTATAGTACATAAAATTTTGATATA [XGTACX_site994] | 6.91
80 | TTTGTACCGGCATTTTTTTTTTCTTTTTTTTTCCAA [XGTACX_negctrl_site323] | 6.73
81 | TTAGTTATTATAATTTGTACACAAATGGTAAAGTAT [XGTACX_site2343] | 7.25
82 | TATTAAAAATGTTAAGTGCAAAAATAAAAATTGTGG [GTGCAC_site9854] | 7.71
83 | ATTTTTTTTTTTTTTTTGGGGGGGTATACTTTTAAA [CACACA_negctrl_site1020] | 10.7
84 | TTCCTTTTTTTTTATTGTACAAAAATATCAAAAAGG [XGTACX_site8505] | 7.23
85 | AATTATATAACAAATTGTACGAATGAAAATATTATT [XGTACX_site4237] | 6.94
86 | TAAAAATAGGAATACGCACACGATGATTAATTTATA [CACACA_site1835] | 6.67
87 | TATAATGAGGATGATAGTACGTATTAGTATAAAAAA [XGTACX_site6623] | 7.14
88 | TTTATATATATTTATACACACAAACATAATACTACT [CACACA_site5161] | 6.97
89 | TTTTTAATTTTATATACACACATAAAATATATGAAG [CACACA_site3145] | 7.01
